# Data as given in paper PMC4336329 (PLoS ONE, 2015).
# The whole screen tested about 310,000 compounds, of which about 2,200 (0.71%) showed an effect of 50% or more. Effects have a minus sign here. Some of the results follow.
# Biological target: human ether-à-go-go-related gene (hERG) potassium channel (human, UniProt Q12809)
# Assay: primary screen, population patch clamp on CHO cells stably expressing hERG
# Sequence of human ether-à-go-go-related gene (hERG) potassium channel (Q12809 whole entry, looked up): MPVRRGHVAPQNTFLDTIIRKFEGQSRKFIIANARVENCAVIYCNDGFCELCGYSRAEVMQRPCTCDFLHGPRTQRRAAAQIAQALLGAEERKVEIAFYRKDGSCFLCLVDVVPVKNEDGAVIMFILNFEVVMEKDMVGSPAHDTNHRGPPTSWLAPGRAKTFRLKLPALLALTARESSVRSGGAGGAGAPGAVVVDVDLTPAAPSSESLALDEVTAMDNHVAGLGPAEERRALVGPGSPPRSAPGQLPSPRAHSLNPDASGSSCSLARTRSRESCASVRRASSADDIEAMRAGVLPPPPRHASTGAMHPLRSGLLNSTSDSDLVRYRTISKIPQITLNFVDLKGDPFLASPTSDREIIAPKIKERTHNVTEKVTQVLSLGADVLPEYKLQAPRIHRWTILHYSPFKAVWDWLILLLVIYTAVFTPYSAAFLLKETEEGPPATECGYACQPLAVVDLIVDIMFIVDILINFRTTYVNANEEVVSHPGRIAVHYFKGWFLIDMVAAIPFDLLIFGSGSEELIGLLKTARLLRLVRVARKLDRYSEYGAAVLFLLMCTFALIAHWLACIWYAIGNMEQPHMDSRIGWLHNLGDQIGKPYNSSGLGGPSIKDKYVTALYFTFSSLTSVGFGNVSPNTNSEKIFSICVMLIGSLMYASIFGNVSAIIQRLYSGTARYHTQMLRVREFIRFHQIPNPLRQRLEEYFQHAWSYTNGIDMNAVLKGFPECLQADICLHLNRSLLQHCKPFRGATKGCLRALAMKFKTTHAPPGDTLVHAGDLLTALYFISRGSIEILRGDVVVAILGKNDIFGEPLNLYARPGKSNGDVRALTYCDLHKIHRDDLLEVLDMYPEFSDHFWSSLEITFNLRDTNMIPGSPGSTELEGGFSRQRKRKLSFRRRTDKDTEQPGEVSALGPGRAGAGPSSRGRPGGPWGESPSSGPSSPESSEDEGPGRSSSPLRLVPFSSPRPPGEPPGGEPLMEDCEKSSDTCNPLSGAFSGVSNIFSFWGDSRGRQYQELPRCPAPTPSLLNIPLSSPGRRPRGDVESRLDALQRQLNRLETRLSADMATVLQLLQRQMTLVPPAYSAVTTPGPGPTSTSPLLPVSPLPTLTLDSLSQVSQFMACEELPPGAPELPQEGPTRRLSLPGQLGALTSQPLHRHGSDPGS
row,SMILES,"hERG current change (%, negative = inhibition) at 1uM"
1,CC(=O)NC1C(=O)N=C(SCC(=O)NCc2ccccc2)NC1=O (stereo not shown),-9.46%
2,C=CCn1c(N)cc(=O)nc1SCC(=O)Nc1ccc(C(=O)OCC)cc1,16.5%
3,CSc1ncc(CN2CCN(CC=C(C)C)C(CCO)C2)cn1 (stereo not shown),16.7%
4,O=C(Nc1ccnn1C1CCN(Cc2ccn[nH]2)CC1)c1ccccc1,-12.7%
5,COc1ccc(N(CCCN2C(=O)c3cccc4cccc(c34)C2=O)C(=O)c2cccs2)cc1,12.5%
6,COc1ccccc1NC(=S)N(CCN1CCCCCC1)Cc1cccs1,-20.6%
7,CC(C)(C)OC(=O)NCCCCCNC(=O)c1nc[nH]c1C(=O)NCc1ccccc1,9.62%
8,COc1cccc(NC(=O)[C@H](Cc2ccccc2)NC(=O)[C@@H]2Cc3ccccc3CN2)c1,6.62%
9,N=c1c(C(=O)NC2CCCC2)cc2c(=O)n3ccccc3nc2n1Cc1ccccc1,-55.9%
10,CC(=O)c1cccc(N(CC(=O)N2CCCC2)S(C)(=O)=O)c1,10.3%
11,COc1ccc(C2c3c(n[nH]c3C)CC(C)(O)C2C(C)=O)cc1OC (stereo not shown),-3.08%
12,COc1ccc(OC)c(/C=C/C(=O)OCC(=O)Nc2ccc3c(c2)OCCO3)c1,12.6%
13,CCCOc1ccc(N/C=C/C(=O)c2cc(OC)c(OC)c(OC)c2)cc1,12.4%
14,CCC(C)(C)NC(=O)CN(C(=O)c1snc(C(N)=O)c1N)c1ccc2c(c1)OCO2,3.43%
15,O=C(CCS(=O)(=O)c1cccs1)N1CCN(c2ccc(F)cc2)CC1,-2.19%
16,COC(=O)c1nn(-c2ccccc2)c(Cl)c1/C=N/OCc1ccc(C)cc1,16.9%
17,CCC(=O)OCCNc1cc(SCCC(=O)OC)c2nonc2c1[N+](=O)[O-],-2.18%
18,Cc1cc2oc(C(=O)NCc3ccc4c(c3)OCO4)c(C)c2cc1C,11.9%
19,COc1cc(C(=O)Nc2ccc3c(c2)OCO3)c([N+](=O)[O-])cc1OC,10.8%
20,COc1ccc(OC)c(N(CC(=O)NCCSc2ccccc2)S(C)(=O)=O)c1,-12.8%
21,Cn1c(CN2CCCC2)nc2cc(NC(=O)C3CCCCC3)ccc21,6.67%
22,O=C(NNC(=O)c1nn(-c2ccc(F)cc2)ccc1=O)Nc1cccc(Cl)c1,14.4%

row,SMILES,"hERG current change (%, negative = inhibition) at 1uM"
1,O=C(COC(=O)c1ccc([N+](=O)[O-])o1)Nc1nc2ccccc2s1,9.21%
2,Cc1ccc(S(=O)(=O)CC(=O)Nc2cc(C)on2)cc1,16.4%
3,Cc1ccc(NC(=O)CN(C)C(=O)CCC(=O)c2cccs2)cc1,-0.0997%
4,Cc1ccc(C)c(NC(=O)CN(C)C(=O)c2nn(C)c(=O)c3ccccc23)c1,7.54%
5,CCOC(=O)N1CCN(C(=O)Cn2c(C)cc3ccccc3c2=O)CC1,8.46%
6,CCOC(=O)C1=C(C)OC(N)=C(C#N)C1c1ccccc1 (stereo not shown),8.51%
7,COC(=O)Nc1nc(C)c(C(=O)c2ccccc2)s1,1.18%
8,CCOC(=O)CSc1nc2sc3c(c2c(=O)[nH]1)CC(C)(C)OC3,16%
9,CC(c1ccc(F)cc1)n1c(Cn2ncc3ccccc3c2=O)n[nH]c1=S (stereo not shown),10.4%
10,COC(=O)c1c(NC(=O)COC(=O)CNC(=O)C2CCCCC2)sc(C)c1C,8.95%
11,Cc1ccc(-n2c(Cc3cccn3C)nnc2SCC(=O)Nc2cc(C)on2)cc1,0.494%
12,COc1ccc(CCC(=O)OCC(=O)Nc2sccc2C(N)=O)cc1,-2.46%
13,Cc1c(/C(O)=C2/C(=O)C(=O)N(CCN3CCOCC3)C2c2ccccn2)cnn1-c1ccccc1 (stereo not shown),5.21%
14,Cc1[nH]n(-c2ccccc2)c(=O)c1N=Nc1ccccc1C(=O)O,9.15%
15,CCn1c(=O)cc(N2CCOCC2)[nH]c1=O,4.64%
16,COc1ccccc1N1CCN(C(=O)c2oc3cc(C)cc(C)c3c2C)CC1,17.7%
17,Cc1c(NC(=O)c2ccccc2)c(=O)n(-c2ccccc2)n1C,-6.64%
18,O=C(Cn1cnc2ccccc2c1=O)c1ccc(Br)cc1,13.6%
19,CCOC(=O)CSc1nc(-c2ccccc2)cc(C(F)(F)F)n1,8%
20,CCCC(NC(=O)C(C)N1CCN(S(=O)(=O)c2ccccc2)CC1)c1ccccc1 (stereo not shown),-2.25%
21,O=C(Nc1nnc(-c2ccccc2)o1)C1CCCCC1,15.8%
22,O=C(c1ccco1)N1CCN(c2nc(C3CC3)nc3c2nnn3Cc2ccccc2Cl)CC1,16.5%

row,SMILES,"hERG current change (%, negative = inhibition) at 1uM"
1,CCOC(=O)c1sc(N2N=C(C)C(N=Nc3cccc(C)c3)C2=O)nc1C (stereo not shown),-1.94%
2,CN(C(=O)c1ccccc1)C1c2c(ccc3ccccc23)OCC1CO (stereo not shown),13.5%
3,O=C1CSc2ccc(S(=O)(=O)NCc3ccccc3)cc2N1,-3.94%
4,COc1ccc2c(c1OC)C(=O)OC2CC(=O)c1ccc2c(c1)OCO2 (stereo not shown),10.2%
5,Cc1cc(Br)ccc1SCC(=O)OCC(=O)c1c(N)n(C)c(=O)n(C)c1=O,0.893%
6,COc1ccc(N=C2SC(C(=O)Nc3ccc(F)cc3)CC(=O)N2C)cc1 (stereo not shown),7.4%
7,CCCOC1CCCN(C(=O)CCCn2nnnc2CN2CCOCC2)C1 (stereo not shown),11.9%
8,CSCC(=O)Nc1cc(C)on1,10.6%
9,O=C1C2C3C=CC(CC3)C2C(=O)N1/N=C/c1ccccc1O (stereo not shown),7.3%
10,CC(NC(=O)Nc1ncccn1)(C(F)(F)F)C(F)(F)F,4.42%
11,COc1ccc(CC(C)Nc2ccccc2F)cc1 (stereo not shown),23%
12,O=C(COc1ccc(S(=O)(=O)N2CCCC2)cc1Cl)NC1CCCC1,-9.44%
13,Nc1nc(SCc2ccc(F)cc2)n[nH]1,16.6%
14,CCOCCCNC(=O)c1ccc(N2CC3CC(C2)c2cccc(=O)n2C3)c(NC(=O)Nc2cccc(OC)c2)c1 (stereo not shown),8.4%
15,CCOC(=O)C1CCCN(Cc2cc(=O)oc3cc(C)ccc23)C1 (stereo not shown),6.79%
16,CCc1ccc(N2CC(C(=O)Nc3ccc(S(=O)(=O)NCC4CCCO4)cc3)CC2=O)cc1 (stereo not shown),13.2%
17,CCOC(=O)c1[nH]c(C)c(/C(O)=C2\C(=O)C(=O)N(CCCn3ccnc3)C2c2ccncc2)c1C (stereo not shown),12.5%
18,COc1ccc(C(=O)c2ccc(N3CCN(C(=O)c4ccc(F)cc4)CC3)c(F)c2)cc1Br,2.88%
19,CSCC(=O)NCC1(N(C)Cc2ccccc2)Cc2ccccc2C1,13.5%
20,Cc1csc(NC(=O)CSc2nnc(-c3ccoc3C)n2Cc2ccco2)n1,-78.4%
21,O=C(O)c1csc(-c2cccc(Cl)c2)n1,14.6%
22,Cc1cc(C)n(C(=O)CN2C(=O)COc3ccccc32)n1,19.8%

row,SMILES,"hERG current change (%, negative = inhibition) at 1uM"
1,ONC(=Nc1ccccc1)c1ccccc1Cl,-1.43%
2,COC(=O)/C=C1\S/C(=N/N=C/c2ccc(Cl)cc2)NC1=O,15.6%
3,Cc1c(C(=O)NC2CCCCC2)sc2ncnc(N3CCN(c4ccccc4)CC3)c12,15.3%
4,CN(Cc1cccs1)C(=O)COc1cccc(-n2cnnn2)c1,0.548%
5,C#CCOCCOCCOCCNc1nc(N2CCN(C(=O)C([C@@H](C)CC)n3cc(C(N)COC(=O)C(F)(F)F)nn3)CC2)nc(N2CCN(C(=O)C([C@@H](C)CC)n3cc(C(N)CC(C)C)nn3)CC2)n1.Cl (stereo partly shown),18.2%
6,COc1ccccc1Nc1nc(N)nc(CSC(=S)N2CCCCC2C)n1 (stereo not shown),9.94%
7,O=C(CCC1CCN(Cc2ccccc2Cl)CC1)NC1CC1,-4.25%
8,O=C(Nc1cc(Cl)ccc1F)C1=COCCO1,14%
9,Cc1ccccc1CN1CCN(C/C=C/c2ccccc2)CC1,-0.571%
10,Cc1cnc(C(=O)OCC(=O)c2ccc(C3CCCCC3)cc2)cn1,8.59%
11,Cc1cc(Nc2cc(F)ccc2C)n2nc(C)nc2n1,8.63%
12,Fc1cccc(-c2cc3nc(-c4ccccc4)cc(N4CCC5(CC4)OCCO5)n3n2)c1,5.92%
13,CSc1ccc(CNC2CN3CCC2CC3)cc1.Cl (stereo not shown),9.25%
14,CSC1=NCCN1C(=O)c1c(-c2ccccc2Cl)noc1C,8.82%
15,CCOC(=O)C(NC(C)=O)C(=O)Nc1ccc(OC)cc1 (stereo not shown),10.9%
16,COC(=O)Nc1ccc(S(=O)(=O)Nc2ccc(C(=O)O)cc2)cc1,-0.235%
17,O=C(COC(=O)CCc1c[nH]c2ccccc12)NC(c1ccccc1)c1ccccc1,4.83%
18,CC(C)N1CCN(Cc2ccc(OCc3ccccc3)cc2)CC1CCO (stereo not shown),0.0763%
19,Cc1ccc(C)c(-c2cc(C(=O)Nc3cccnc3)c3ccccc3n2)c1,-24.6%
20,CCOC(=O)C(Sc1cc(C)nc(N)n1)C(C)=O (stereo not shown),8.11%
21,NC(=O)Nc1ccc(Oc2c(F)c(F)c(F)c(F)c2F)cc1,6.61%
22,CC(C)(C)CC(C)(C)N=C1NS(=O)(=O)c2cc([N+](=O)[O-])ccc21,9.84%
